The source of these data is patent publication US20110008340A1 (published 2011).

In one experiment the target is T1, human iC3b (human, UniProt P01024 23-667; P01024 749-1303; P01024 1321-1663, limits assumed).
T1 construct: domain: iC3b
The experiment can be described thus: ELISA, factor B on plate-bound C3 fragments.

The next experiment has as its target T2, human C3c (human, UniProt P01024 23-667; P01024 749-954; P01024 1321-1663, limits assumed).
T2 construct: domain: C3c
The experiment is described as follows: ELISA, factor B on plate-bound C3 fragments.

The target in the next experiment is T3, properdin bound C3b (human, UniProt P01024 23-667; P01024 partial chain, limits assumed).
T3 construct: domain: C3b; Complex made on the plate: 5 nM properdin incubated 1 hour on C3b coated wells, then washed; also called PC3b; properdin C3b complex
The experiment is described as follows: ELISA, factor B on plate-bound C3b with or without properdin (FIG. 17).

B1: factor B (enzyme, UniProt P00751 26-764, looked up)
chain: TPWSLARPQGSCSLEGVEIKGGSFRLLQEGQALEYVCPSGFYPYPVQTRTCRSTGSWSTLKTQDQKTVRKAECRAIHCPRPHDFENGEYWPRSPYYNVSDEISFHCYDGYTLRGSANRTCQVNGRWSGQTAICDNGAGYCSNPGIPIGTRKVGSQYRLEDSVTYHCSRGLTLRGSQRRTCQEGGSWSGTEPSCQDSFMYDTPQEVAEAFLSSLTETIEGVDAEDGHGPGEQQKRKIVLDPSGSMNIYLVLDGSDSIGASNFTGAKKCLVNLIEKVASYGVKPRYGLVTYATYPKIWVKVSEADSSNADWVTKQLNEINYEDHKLKSGTNTKKALQAVYSMMSWPDDVPPEGWNRTRHVIILMTDGLHNMGGDPITVIDEIRDLLYIGKDRKNPREDYLDVYVFGVGPLVNQVNINALASKKDNEQHVFKVKDMENLEDVFYQMIDESQSLSLCGMVWEHRKGTDYHKQPWQAKISVIRPSKGHESCMGAVVSEYFVLTAAHCFTVDDKEHSIKVSVGGEKRDLEIEVVLFHPNYNINGKKEAGIPEFYDYDVALIKLKNKLKYGQTIRPICLPCTEGTTRALRLPPTTTCQQQKEELLPAQDIKALFVSEEEKKLTRKEVYIKNGDKKGSCERDAQYAPGYDKVKDISEVVTPRFLCTGGVSPYADPNTCRGDSGGPLIVHKRSRFIQVGVISWGVVDVCKNQKRQKQVPAHARDFHINLFQVLPWLKEKLQDEDLGFL
For the molecule B1, the binding result with human iC3b and with human C3c was “no binding” in each case. For the same molecule, in the experiment with properdin bound C3b, the “fold difference in affinity (properdin bound C3b against C3b alone)” value fell in the range of 20 to 30 fold.
